Hit rate of the full screen: of about 370,000 compounds, about 150 (0.041%) were called active. This list was built around the results that the source calls inconclusive (neither active nor inactive); the mix of calls is not that of the screen. Calls follow the shape of the dose curve; as a rule, active = well fitted inhibition curve with a large enough effect; inconclusive = small, poorly fitted or top-dose-only effect; inactive = flat fitted curve, though single readings scatter. Potencies of inconclusive entries are left out as doubtful fits.
Biological target: Beta-lactamase (Escherichia coli (strain K12)) (UniProt P00811)
UniProt P00811, sequence (P00811 whole entry, looked up): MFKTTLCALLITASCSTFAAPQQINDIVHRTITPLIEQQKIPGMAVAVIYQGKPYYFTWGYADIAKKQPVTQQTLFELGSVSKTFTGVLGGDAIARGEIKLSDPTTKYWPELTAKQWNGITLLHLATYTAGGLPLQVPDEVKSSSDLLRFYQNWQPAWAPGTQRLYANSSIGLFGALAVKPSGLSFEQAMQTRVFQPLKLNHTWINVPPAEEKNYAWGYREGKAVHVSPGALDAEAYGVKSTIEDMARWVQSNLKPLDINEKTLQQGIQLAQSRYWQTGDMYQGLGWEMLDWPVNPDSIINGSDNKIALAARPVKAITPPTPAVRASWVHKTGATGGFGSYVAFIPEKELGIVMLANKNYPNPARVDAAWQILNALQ
Test: qHTS Inhibitors of AmpC Beta-Lactamase (assay with detergent); also: nearly all actives have a fitted effect of over 25% in size
Conditions: AmpC hydrolysis of nitrocefin, absorbance 480 nm, 0.01% Triton; series mostly up to 114 µM
Method in brief: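 20 mM phosphate pH 7.0 + 0.01% (detergent screen) or 0.0001% Triton X-100; 5.3 nM AmpC reagent; cpd preinc 15 min RT; nitrocefin (800 uM stock) to start; A480 q20 s × 4 min; Activity was normalised to no-enzyme and no-compound control wells.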
Potency is read from the fitted curve at half-maximal effect; tags tell the direction and shape of the fitted curve.

Structure (SMILES)	Potency
O=C(NCc1cccs1)c1cc2c(s1)CS(=O)(=O)C2	inconclusive [inhibitor, full curve]
COC(=O)CCCCC1SCC(NC(=O)OC)C1NC(=O)OC (stereo not given)	inconclusive [inhibitor, partial curve, poor fit]
Cc1cccc(C(=O)Nc2ccc(NC(=O)Cc3ccc(Cl)cc3)cc2)c1	inactive
COC(=O)c1cc(OC)c(OC)cc1NC(=O)CCCCCN1C(=O)CCC1=O	inconclusive [inhibitor, partial curve]
O=[N+]([O-])c1ccc(C2=Nc3cc(Cl)ccc3OC2)cc1	inconclusive [inhibitor, full curve, poor fit]
O=C(Nc1ccccc1[N+](=O)[O-])c1cccnc1Cl	inconclusive [inhibitor, partial curve]
O=C(COC(=O)c1nc(Cl)ccc1Cl)Nc1ccc2[nH]c(=O)[nH]c2c1	inconclusive [inhibitor, full curve, poor fit]
COc1ccc(C(=O)C(CO)Oc2ccccc2OC)cc1OC (stereo not given)	inactive
COc1ccccc1N(CC(=O)N1CCN(c2ccc(F)cc2)CC1)S(=O)(=O)c1ccc(C)cc1	inconclusive [inhibitor, partial curve]
C=C(C)Cc1c(C)c(C#N)c2nc3ccccc3n2c1N1CCCCC1	inactive
Cc1ccc(C)c(N2CCN(S(=O)(=O)c3c(C)noc3C)CC2)c1	inconclusive [inhibitor, full curve, poor fit]
COc1ccccc1NC(=O)COC(=O)c1ccccc1SCC(=O)N1CCCC1	inconclusive [inhibitor, full curve]
CC(C)(CO)Nc1nc(Cl)nc(NC2CCCCC2)n1	inactive
CC(=O)N1CCN(c2ccccc2NC(=O)COc2ccccc2C)CC1	inactive
CN(Cc1nc2ccccc2c(=O)[nH]1)C(=O)c1ccc(S(=O)(=O)N2CCCC2)cc1	inactive
CCN(CC)CCCNc1cc(-c2ccccc2)nc(C)n1	inactive
Cc1ccc(S(=O)(=O)NC(CC(C)C)C(=O)NCC(C)(C)N2CCOCC2)cc1 (stereo not given)	inconclusive [inhibitor, partial curve, poor fit]
COc1cc(C=O)ccc1OS(=O)(=O)c1ccc(NC(C)=O)cc1	inconclusive [inhibitor, full curve, poor fit]
Cn1c(C(=O)N2CCN(c3nc4ccccc4s3)CC2)cc2sccc21	inconclusive [inhibitor, partial curve]
O=S(=O)(c1ccc(Cl)cc1)c1nc(-c2ccccc2Br)oc1NCc1ccccc1	inactive
COc1ccccc1Nc1nc(C)cc(C)n1	inconclusive [inhibitor, single point]
Cc1cc(C)c(NC(=O)CSc2nc3ccccc3c3nc(CCn4cncc4C)nn23)c(C)c1	inactive
O=C(NCCCN1CCc2ccccc2C1)C1CCN(c2nnc(-n3cccc3)s2)CC1	inconclusive [inhibitor, partial curve]
Cc1ccc(S(=O)(=O)N2CCN(c3ccccc3)CC2)c(C)c1	inconclusive [inhibitor, full curve, poor fit]

Structure (SMILES)	Potency
CCn1nc(-c2ccccc2)c(-c2ccccc2)c(C(=O)Nc2ccc(S(N)(=O)=O)cc2)c1=O	inactive
Cc1nonc1C(=O)N/N=C/c1ccc([N+](=O)[O-])o1	inconclusive [inhibitor, full curve, poor fit]
O=S(=O)(NC1CCCCC1)c1cccc2nsnc12	inconclusive [inhibitor, full curve, poor fit]
O=c1[nH][nH]cc1C=NCc1cccc(C(F)(F)F)c1	inconclusive [inhibitor, full curve, poor fit]
CCCOc1ccccc1NC(=O)c1c(-c2ccccc2)noc1C	inconclusive [inhibitor, full curve]
Cc1csc(NC(=O)c2nc3nc(C)cc(C)n3n2)n1	inconclusive [inhibitor, full curve, poor fit]
CCC(C)NCCOc1ccc(C(C)(C)c2ccccc2)cc1 (stereo not given)	inactive
COc1ccc2ccn(S(=O)(=O)c3ccccc3)c2c1	inconclusive [inhibitor, partial curve]
COc1ccc(NC(C)C(=O)Nc2ccc(C#N)cc2)cc1Cl (stereo not given)	inactive
O=C(CSc1nnc(-c2ccc(Cl)cc2)o1)N1CCOCC1	inactive
Nc1nn2c(-c3ccccc3)cc(=O)[nH]c2c1N=Nc1ccc(Br)cc1	inactive
CC(C)(CNC(=O)/C=C/c1ccc(F)cc1)CNC(=O)/C=C/c1ccc(F)cc1	inconclusive [inhibitor, partial curve]
CC1=C(C(=O)OCc2ccccc2)C(c2ccc(C#N)cc2)NC(=O)N1CCCC(=O)O (stereo not given)	inconclusive [inhibitor, full curve, poor fit]
O=C1C=C(Nc2ccc(O)cc2)C(=O)c2ccccc21	inconclusive [inhibitor, single point]
CC(C)CC1=NN(C(=O)c2cccnc2)C(O)(C(F)(F)F)C1 (stereo not given)	inconclusive [inhibitor, partial curve, poor fit]
N#C/C(C(=O)N1CCOCC1)=C1/SC(Cc2ccc(F)cc2)C(=O)N1c1ccccc1 (stereo not given)	inconclusive [inhibitor, full curve, poor fit]
COc1cccc(-n2nnnc2SCC(=O)Nc2cccc(NC(C)=O)c2)c1	inconclusive [inhibitor, full curve, poor fit]
O=C1c2cccc3c(N4CCOCC4)c([N+](=O)[O-])cc(c23)C(=O)N1c1cccc2ccccc12	inactive
Cc1ccc2cc(CN(C(=O)c3ccco3)c3ccccc3)c(=O)[nH]c2c1	inconclusive [inhibitor, partial curve, poor fit]
COC(=O)c1cn(NC(=O)c2cc(OC)c(OC)c(OC)c2)c(=O)c2ccccc12	inconclusive [inhibitor, single point]
CSCCC(N=C(NS(=O)(=O)c1ccc(Br)cc1)c1ccccc1)C(=O)O (stereo not given)	inconclusive [inhibitor, partial curve]
O=C(O)c1ncn(Cc2ccccc2)c1C(=O)O	inconclusive [inhibitor, full curve]
CC(C(=O)Nc1nccs1)N1C(=O)c2ccccc2S1(=O)=O (stereo not given)	inactive
Cc1c(Cl)cccc1NC(=S)N1CCCCCC1	inconclusive [inhibitor, full curve, poor fit]

Structure (SMILES)	Potency
CC1CCN(CC(=O)Nc2cc(C(F)(F)F)ccc2Cl)CC1	inconclusive [inhibitor, partial curve, poor fit]
CCOC(=O)CN1C2=NCCN2c2ccccc21	inactive
COc1ccccc1NC(=O)Nc1nc(CC(=O)N2CCN(c3ccccc3F)CC2)cs1	inconclusive [inhibitor, full curve, poor fit]
COc1ccccc1CN(Cc1cc2cc(C)ccc2[nH]c1=O)Cc1nnnn1Cc1ccco1	inactive
Cc1ccccc1OC(=O)C1C(c2ccccc2)C(C(=O)O)C1c1ccccc1 (stereo not given)	inconclusive [inhibitor, single point]
Cn1c(NC(=O)/C=C\c2ccccc2)cc(=O)n(C)c1=O	inactive
Cc1cc2nnc(SCC(=O)Nc3cc(S(=O)(=O)N4CCOCC4)ccc3Cl)n2c2ccccc12	inactive
CN(c1ccc(S(=O)(=O)N2CCOCC2)cn1)C1CCCCC1	inconclusive [inhibitor, full curve, poor fit]
Cc1cccc(-c2noc(CNS(=O)(=O)c3ccccc3)n2)c1	inconclusive [inhibitor, full curve]
Cc1nc(SCC(=O)N2CCCCC2)c2c(C)c(C)sc2n1	inconclusive [inhibitor, full curve, poor fit]
Cn1cnnc1SCc1ccc(C(=O)N=Nc2c(O)n(C)c3ccccc23)cc1	inactive
CCOc1ccc(CN(C(=O)c2ccccn2)c2ccc(OC)c(Cl)c2)cc1	inactive
Cc1cc(C)nc(SCC(=O)OCC(=O)Nc2nc3ccccc3s2)n1	inactive
NC(=O)c1ccsc1NC(=O)COC(=O)c1cc(Cl)ccc1O	inconclusive [inhibitor, partial curve, poor fit]
CCC(C)NC(=O)c1ccccc1NC(=O)c1ccc(CSc2ccccc2)cc1 (stereo not given)	inactive
COC(=O)c1nc(NC(=O)C(C)(C)C)n[nH]1	inactive
CC(C)[C@H](NC(=O)N1CCn2c1nc1ccccc12)C(=O)NCc1ccco1	inconclusive [inhibitor, full curve, poor fit]
O=C(NC1CCCCC1)c1cc([N+](=O)[O-])[nH]n1	inconclusive [inhibitor, full curve]
COc1ccc(-c2cc(C(=O)O)[nH]n2)cc1OC	inconclusive [inhibitor, full curve, poor fit]
COc1cccc2cc(C(C)=O)c(=O)oc12	inconclusive [inhibitor, full curve, poor fit]
COC(=O)c1ccccc1N(C)C(=O)C12CCC(C)(C(=O)O1)C2(C)C (stereo not given)	inconclusive [inhibitor, full curve, poor fit]
Cn1cc(S(=O)(=O)N2CCCCCC2)cc1C(=O)N1CCN(c2cccc(C(F)(F)F)c2)CC1	inactive
